# Experimental data as given in the supplement of paper PMC8728848.
# Some of the results follow.
# Columns and labels:
# Assay in all cases: glycan array binding signal (z-score within array); higher = stronger binding
# Settings in all cases: glycan notation: IUPAC condensed, linker removed
# [1] = molecular target: GlcNAc(b1-3)Gal(b1-4)GlcNAc(b1-3)Gal(b1-4)GlcNAc(b1-2)Man(a1-3)[GlcNAc(b1-3)Gal(b1-4)GlcNAc(b1-3)Gal(b1-4)GlcNAc(b1-2)Man(a1-6)]Man(b1-4)GlcNAc(b1-4)[Fuc(a1-6)]GlcNAc
# Procedure, shortened: (§1)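 Columns mapping to the same glycan were averaged after glycan names were converted to IUPAC-condensed notation. The data come from 3228 arrays in the Consortium for Functional Glycomics database, limited to those with an available protein sequence. Binding is reported as a within-array Z-score averaged across arrays of one protein sequence and across linkers.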
# [2] = molecular target: GlcNAc(b1-3)Gal(b1-4)GlcNAc(b1-3)Gal(b1-4)GlcNAc(b1-2)[GlcNAc(b1-3)Gal(b1-4)GlcNAc(b1-3)Gal(b1-4)GlcNAc(b1-6)]Man(a1-6)[GlcNAc(b1-3)Gal(b1-4)GlcNAc(b1-3)Gal(b1-4)GlcNAc(b1-2)Man(a1-3)]Man(b1-4)GlcNAc(b1-4)[Fuc(a1-6)]GlcNAc
# Procedure, shortened: as §1
# [3] = molecular target: GlcNAc(b1-3)Gal(b1-4)GlcNAc(b1-3)Gal(b1-4)GlcNAc(b1-3)Gal(b1-4)GlcNAc(b1-2)Man(a1-3)[GlcNAc(b1-3)Gal(b1-4)GlcNAc(b1-3)Gal(b1-4)GlcNAc(b1-3)Gal(b1-4)GlcNAc(b1-2)Man(a1-6)]Man(b1-4)GlcNAc(b1-4)GlcNAc
# Procedure, shortened: as §1
# [4] = molecular target: GlcNAc(b1-3)Gal(b1-4)GlcNAc(b1-3)Gal(b1-4)GlcNAc(b1-3)Gal(b1-4)GlcNAc(b1-2)Man(a1-3)[GlcNAc(b1-3)Gal(b1-4)GlcNAc(b1-3)Gal(b1-4)GlcNAc(b1-3)Gal(b1-4)GlcNAc(b1-2)Man(a1-6)]Man(b1-4)GlcNAc(b1-4)[Fuc(a1-6)]GlcNAc
# Procedure, shortened: as §1
# [5] = molecular target: GlcNAc(b1-3)Gal(b1-4)GlcNAc(b1-3)Gal(b1-4)GlcNAc(b1-3)Gal(b1-4)GlcNAc(b1-2)[GlcNAc(b1-3)Gal(b1-4)GlcNAc(b1-3)Gal(b1-4)GlcNAc(b1-3)Gal(b1-4)GlcNAc(b1-6)]Man(a1-6)[GlcNAc(b1-3)Gal(b1-4)GlcNAc(b1-3)Gal(b1-4)GlcNAc(b1-3)Gal(b1-4)GlcNAc(b1-2)Man(a1-3)]Man(b1-4)GlcNAc(b1-4)[Fuc(a1-6)]GlcNAc
# Procedure, shortened: as §1
# [6] = molecular target: GlcNAc(b1-3)Gal(b1-4)GlcNAc(b1-3)Gal(b1-4)GlcNAc(b1-3)Gal(b1-4)GlcNAc(b1-3)Gal(b1-4)GlcNAc(b1-2)Man(a1-3)[GlcNAc(b1-3)Gal(b1-4)GlcNAc(b1-3)Gal(b1-4)GlcNAc(b1-3)Gal(b1-4)GlcNAc(b1-3)Gal(b1-4)GlcNAc(b1-2)Man(a1-6)]Man(b1-4)GlcNAc(b1-4)GlcNAc
# Procedure, shortened: as §1
# [7] = molecular target: GlcNAc(b1-3)Gal(b1-4)GlcNAc(b1-3)Gal(b1-4)GlcNAc(b1-3)Gal(b1-4)GlcNAc(b1-3)Gal(b1-4)GlcNAc(b1-2)Man(a1-3)[GlcNAc(b1-3)Gal(b1-4)GlcNAc(b1-3)Gal(b1-4)GlcNAc(b1-3)Gal(b1-4)GlcNAc(b1-3)Gal(b1-4)GlcNAc(b1-2)Man(a1-6)]Man(b1-4)GlcNAc(b1-4)[Fuc(a1-6)]GlcNAc
# Procedure, shortened: as §1
# [8] = molecular target: GlcNAc(b1-3)Gal(b1-4)GlcNAc(b1-3)Gal(b1-4)GlcNAc(b1-3)Gal(b1-4)GlcNAc(b1-3)Gal(b1-4)GlcNAc(b1-2)[GlcNAc(b1-3)Gal(b1-4)GlcNAc(b1-3)Gal(b1-4)GlcNAc(b1-3)Gal(b1-4)GlcNAc(b1-3)Gal(b1-4)GlcNAc(b1-6)]Man(a1-6)[GlcNAc(b1-3)Gal(b1-4)GlcNAc(b1-3)Gal(b1-4)GlcNAc(b1-3)Gal(b1-4)GlcNAc(b1-3)Gal(b1-4)GlcNAc(b1-2)Man(a1-3)]Man(b1-4)GlcNAc(b1-4)[Fuc(a1-6)]GlcNAc
# Procedure, shortened: as §1
# [9] = molecular target: GlcNAc(b1-3)Gal(b1-4)GlcNAc(b1-3)Gal(b1-4)GlcNAc(b1-3)GalNAc
# Procedure, shortened: as §1
# [10] = molecular target: GlcNAc(b1-3)Gal(b1-4)GlcNAc(b1-3)GalNAc
# Procedure, shortened: as §1
# [11] = molecular target: GlcNAc(b1-3)Gal(b1-4)GlcNAc(b1-3)[GlcNAc(b1-3)Gal(b1-4)GlcNAc(b1-3)]GalNAc
# Procedure, shortened: as §1
# [12] = molecular target: GlcNAc(b1-3)Gal(b1-4)GlcNAc(b1-6)[Gal(b1-3)]GalNAc
# Procedure, shortened: as §1
# [13] = molecular target: GlcNAc(b1-3)Gal(b1-4)GlcNAc(b1-6)[GlcNAc(b1-3)Gal(b1-3)]GalNAc
# Procedure, shortened: as §1
# [14] = molecular target: GlcNAc(b1-3)Gal(b1-4)GlcNAc(b1-6)[GlcNAc(b1-3)]Gal(b1-4)GlcNAc
# Procedure, shortened: as §1
# GlcNAc(b1-3)GalNAc = molecular target: GlcNAc(b1-3)GalNAc
# Procedure, shortened: as §1
# GlcNAc(b1-3)Man = molecular target: GlcNAc(b1-3)Man
# Procedure, shortened: as §1
# [15] = molecular target: GlcNAc(b1-3)[GlcNAc(b1-4)][GlcNAc(b1-6)]GlcNAc
# Procedure, shortened: as §1
# [16] = molecular target: GlcNAc(b1-3)[GlcNAc(b1-6)]Gal(b1-4)GlcNAc
# Procedure, shortened: as §1
# [17] = molecular target: GlcNAc(b1-3)[GlcNAc(b1-6)]GalNAc
# Procedure, shortened: as §1
# [18] = molecular target: GlcNAc(b1-4)Gal(b1-4)GlcNAc
# Procedure, shortened: as §1
# GlcNAc(b1-4)GlcNAc = molecular target: GlcNAc(b1-4)GlcNAc
# Procedure, shortened: as §1
# [19] = molecular target: GlcNAc(b1-4)GlcNAc(b1-4)GlcNAc
# Procedure, shortened: as §1
# [20] = molecular target: GlcNAc(b1-4)GlcNAc(b1-4)GlcNAc(b1-4)GlcNAc(b1-4)GlcNAc
# Procedure, shortened: as §1
binder,measurement,setting,value
EULS2 M4 (Oryza sativa) (protein) MVYCRANPNYAMTARNGAVVLAPANPKDEYQHWIKDMRWSTSIKDEEGYPAFALVNKATGQAIKHSLGQSHPVRLVPYNPEVMDESVLWTESRDVGNGFRCIRMVNNIYLNFDAFHGDKYHGGVRDGTDIVLWKWCEGDSLRWKIQPYYILEQKLISEEDLNSAVDHHHHHH,glycan array binding signal (z-score),[1],-0.235
same,glycan array binding signal (z-score),[2],-0.364
same,glycan array binding signal (z-score),[3],-0.118
same,glycan array binding signal (z-score),[4],-0.034
same,glycan array binding signal (z-score),[5],-0.526
same,glycan array binding signal (z-score),[6],-0.223
same,glycan array binding signal (z-score),[7],-0.185
same,glycan array binding signal (z-score),[8],-0.528
same,glycan array binding signal (z-score),[9],0.729
same,glycan array binding signal (z-score),[10],0.752
same,glycan array binding signal (z-score),[11],-0.341
same,glycan array binding signal (z-score),[12],-0.431
same,glycan array binding signal (z-score),[13],-0.505
same,glycan array binding signal (z-score),[14],-0.401
same,glycan array binding signal (z-score),GlcNAc(b1-3)GalNAc,-0.116
same,glycan array binding signal (z-score),GlcNAc(b1-3)Man,1.37
same,glycan array binding signal (z-score),[15],-0.222
same,glycan array binding signal (z-score),[16],0.27
same,glycan array binding signal (z-score),[17],-0.301
same,glycan array binding signal (z-score),[18],1.09
same,glycan array binding signal (z-score),GlcNAc(b1-4)GlcNAc,-0.495
same,glycan array binding signal (z-score),[19],-0.101
same,glycan array binding signal (z-score),[20],-0.557
